The record followed here is PubChem BioAssay AID1745853 (National Center for Advancing Translational Sciences (NCATS), 2022).

Structures are written as SMILES. This is one part of the list. These are further read-outs of the screen, such as a control signal, another cell line or another target. No call is given for them.

What all share (assay): Primary Screen for Target Class Profiling of Small Molecule Inhibitors of Methyltransferases
In assay [1] the target is Glycine N-methyltransferase (Homo sapiens) (UniProt Q14749). To be noted: purified enzyme, MTase-Glo SAH luminescence; measured here: GNMT inhibition; at 40 µM; stronger effect = lower value. In a few lines:
(§1)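 Each enzyme was reacted with SAM and its substrate, with compounds tested once at 40 uM; SAH formed was read by MTase-Glo luminescence.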

For assay [2], the target named is Guanidinoacetate N-methyltransferase (Homo sapiens) (UniProt Q14353). To be noted: purified enzyme, MTase-Glo SAH luminescence; measured here: GAMT inhibition; at 40 µM; stronger effect = lower value. An outline of the steps: as §1
For assay [3], the target named is Histamine N-methyltransferase (Homo sapiens) (UniProt P50135). To be noted: purified enzyme, MTase-Glo SAH luminescence; measured here: HNMT inhibition; at 40 µM; stronger effect = lower value. An outline of the steps:
as §1

Assay [4] deals with Nicotinamide N-methyltransferase (Homo sapiens) (UniProt P40261). To be noted: purified enzyme, MTase-Glo SAH luminescence; measured here: NNMT inhibition; at 40 µM; stronger effect = lower value. In a few lines:
as §1

For assay [5], the target named is Phenylethanolamine N-methyltransferase (Homo sapiens) (UniProt P11086). To be noted: purified enzyme, MTase-Glo SAH luminescence; measured here: PNMT inhibition; at 40 µM; stronger effect = lower value. An outline of the steps: as §1
On the % scale 0 is the no-effect control and ±100 the full control effect.

`C=C(CCO)C(=O)OCC1OCC(OC(=O)C(=C)CCO[C@@H]2O[C@H](COC(=O)C(=C)CCO[C@@H]3O[C@H](CO)[C@@H](O)[C@H](O)[C@H]3O)[C@@H](O)[C@H](O)[C@H]2O)C(O)C1O` (stereo not given in full): the activity change, negative = inhibition in assay [1] is 0%; in assay [2], -5.5%; in assay [3], -2.05%; in assay [4] it was -15.1%; in assay [5], 0.391%.
On the same counts, the results for `COc1ccc(CNc2nc3c(S(=O)(=O)c4ccccc4)nnn3c3ccccc23)cc1` are -4.4%, 0%, 1.68%, -4.89% and -4%.
On the same counts, the results for `CCOC(=O)c1ncn2c1CN(C)C(=O)c1cc(F)ccc1-2` are 6.75%, 13.6%, 8.85%, -2.73% and 4.9%.
The corresponding values for `O=NN(CCCl)C(=O)NCCCl` are 3.79%, 14.7%, 7.76%, 1.63% and 8.27%.
For the molecule `C[C@@H](N)C1CCC(C(=O)Nc2ccncc2)CC1` (stereo not given in full), the activity change, negative = inhibition in assay [1] was 2.34%; in assay [2], 12.1%; in assay [3], 12%; in assay [4], -6.3%; in assay [5], -1.18%.
The corresponding values for `NCC(O)(CS(=O)(=O)O)c1ccc(Cl)cc1` (stereo not given) are -10.8%, 4.68%, -0.246%, -4.41% and 6.31%.
On the same counts, the results for `CC[C@H](NC(=O)c1c(C)c(-c2ccccc2)nc2ccccc12)c1ccccc1` are -2.65%, 13.3%, 9.43%, -4.47% and 0.926%.
The corresponding values for `COc1ccc(S(=O)(=O)N2CCC(n3c(=O)[nH]c4ccccc43)CC2)cc1` are -7.84%, -48.6%, 1.41%, 7.79% and -15.3%.
On to `CCCn1c(=O)c2ccc(C(=O)NC3CCCC3)cc2n2c(=O)n(Cc3cccc(F)c3)nc12`, for which the activity change, negative = inhibition was -0.814% in assay [1]; 5.1% in assay [2]; -1.61% in assay [3]; -2.8% in assay [4]; -3.01% in assay [5].
For `COc1ccc(C(=O)N2CCOC[C@H](Oc3cccnc3)C2)cc1`, the activity change, negative = inhibition in assay [1] was -3.59%; in assay [2], -4.29%; in assay [3], -1.02%; in assay [4], -1.14%; in assay [5], 0.948%.
The corresponding values for `O=C(c1nccc2ccccc12)N1CCC2(CC1)CC(O)CCO2` (stereo not given) are -4.39%, -2.71%, -4.33%, -7.58% and -12.9%.
As for `COc1ccc(CCNC(=O)c2c(C)noc2-c2cccs2)cc1OC`, the activity change, negative = inhibition was -2.39% in assay [1]; -3.45% in assay [2]; -0.507% in assay [3]; -20.4% in assay [4]; -3.75% in assay [5].
The corresponding values for `CC(C)NS(=O)(=O)c1ccc2c(c1)nc(-c1ccc(CO)o1)n2C(C)C` are -4.38%, 1.7%, 0.258%, -1.39% and 4.06%.
The corresponding values for `COCCCNC(=O)C1(C)Cn2nc(-c3ccccc3)cc2C(=O)N1Cc1ccc(F)cc1` (stereo not given) are -5.08%, -1.19%, -3.75%, -6.85% and -7.63%.
Take `Cc1ccc(Cl)cc1N1C(=O)c2cc3occc3n2CC1(C)C(=O)NC1CCCCCC1` (stereo not given): the activity change, negative = inhibition is -1.71% in assay [1]; 0% in assay [2]; -7.36% in assay [3]; -5.83% in assay [4]; 0.801% in assay [5].
The corresponding values for `O=C1CC2(CCN(CC3CCCCC3)CC2)Oc2ccccc2N1c1ccccc1` are -0.764%, 2.08%, -4.02%, -2.49% and 8.16%.
On the same counts, the results for `CC(C)Oc1ccc(CN2C(=O)c3cc(C(C)(C)C)nn3CC2(C)C(=O)NC2CCCCC2)cc1` (stereo not given) are -0.541%, -0.87%, 1.76%, 4.61% and -1.54%.
The corresponding values for `CC(=O)OC1CC2(C)C3=CCC4(C)C5C(O)C(O)C(C(C)C)C5(C)CCC4(C)C3CCC2C(C)(C)C1OC1OC(CO)C(O)C(O)C1O` (stereo not given) are 4.15%, 19.6%, 10.6%, 3.82% and 3.72%.
Turning to `CC(C(=O)O)c1cccc(C(=O)c2ccccc2)c1` (stereo not given), the activity change, negative = inhibition in assay [1] was 2.21%; in assay [2] it was 9.77%; in assay [3], 4.39%; in assay [4], -3.5%; in assay [5] it was 8.79%.
Turning to `O=C1CCCN1c1ccc(CN2CC(=O)N(Cc3cccc(F)c3)c3ccccc3S2(=O)=O)cc1`, the activity change, negative = inhibition in assay [1] is -0.436%; in assay [2], 4.92%; in assay [3], 7.06%; in assay [4], 1.22%; in assay [5] it was 0.233%.
On the same counts, the results for `CC(O)(CC(=O)O)CC(=O)O[C@@H]1[C@@H](O)[C@H](OCCc2ccccc2)O[C@H](CO)[C@H]1O` (stereo not given in full) are 4.6%, 4.77%, 4.88%, -8.35% and -1.13%.
For `O=C(CCC1CCCN(Cc2ccc(-c3ccccc3)cc2)C1)N1CCOCC1` (stereo not given), the activity change, negative = inhibition in assay [1] is -5.06%; in assay [2], -7.65%; in assay [3], -4.54%; in assay [4], -8.2%; in assay [5], -5.29%.
For the molecule `CC(C)CCn1c(=O)c2ccc(C(=O)NC3CCCC3)cc2n2c(=O)n(CC(=O)NC(C)C)nc12`, the activity change, negative = inhibition in assay [1] was 3.9%; in assay [2] it was 0%; in assay [3], 8.28%; in assay [4], 4.25%; in assay [5], 0.665%.
On the same counts, the results for `Cc1ccc(NC(=O)Cn2c(=O)oc3cc(S(=O)(=O)N4CCCC4)ccc32)c(C)c1` are -1.73%, 6.87%, 7.24%, 5.09% and -0.787%.
In the case of `COc1ccc(-c2cc3n(n2)CC(C)(C(=O)NC2CCCCC2)N(C2CCCC2)C3=O)cc1` (stereo not given), the activity change, negative = inhibition in assay [1] is -7.94%; in assay [2], -2.72%; in assay [3], -11.6%; in assay [4], -13%; in assay [5], -3.67%.
The corresponding values for `Cc1ccccc1CCNC(=O)Cn1ccc2cc(S(=O)(=O)N3CCCC3)ccc21` are 3.4%, 0.605%, 0.165%, 4.61% and -15.3%.
The corresponding values for `O=S(=O)(c1ccccc1)c1nnn2c1nc(N1CCN(c3ccccn3)CC1)c1cc(Cl)ccc12` are 2.5%, -0.923%, -5.28%, 1.33% and -3.75%.
On the same counts, the results for `COCC(=O)N[C@H]1C[C@@H](CO)N(Cc2ccc(Br)o2)C1` are -4.77%, -4.51%, -1.88%, -6.87% and -7.07%.
On to `CC(C)C[C@@H](C(=O)N[C@@H](Cc1ccc(OCc2ccccc2)cc1)C(=O)NC(C)(C)C)N(C)Cc1ccc(C(C)(C)C)cc1`, for which the activity change, negative = inhibition is 4.49% in assay [1]; -22.4% in assay [2]; -3.17% in assay [3]; -35.5% in assay [4]; -19.8% in assay [5].
